Experimental data reported in the supplement of paper PMC9151546.
Most values come without repeats; read them as rough.

Legend:
CHO-K1 [1] = assay: micronucleus frequency (% of nucleated events); higher = more micronuclei (genotoxic)
CHO-K1 [2] = assay: hypodiploid nuclei frequency (% of nucleated events); higher = more hypodiploid events (aneugenic)
Protocol: (§1)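 Flow-cytometric in vitro micronucleus assay (Litron MicroFlow) in CHO-K1 cells in 96-well plates, 19 concentrations (4.5-200 µM, n=1 per concentration). Without S9, cells were exposed for 24 h and sampled at 48 h. With Aroclor 1254-induced rat liver S9, cells were exposed for 3-4 h and sampled at 27-28 h. Read-outs are %MN and %hypodiploid nuclei relative to nucleated events, and relative survival as the nuclei-to-bead ratio versus the 1% DMSO vehicle control (x100).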

CHO-K1 [3] = assay: relative survival (nuclei to bead ratio vs DMSO control) (% of vehicle control); higher = more surviving cells
Protocol: as §1
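For hypodiploid nuclei frequency (% of nucleated events) in this document: hypodiploid nuclei gated on a flow cytometer with 488 nm excitation after SYTOX Green staining, cultures at 37 °C, positive controls vinblastine without S9 and cyclophosphamide with S9.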
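For micronucleus frequency (% of nucleated events) in this document: cells lysed with nuclei stained by SYTOX Green, then micronucleus-gated events counted against nucleated events by flow cytometry with 488 nm excitation.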
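For relative survival (nuclei to bead ratio vs DMSO control) in this document: Lysed-cell nuclei stained with SYTOX Green and counted against counting beads by flow cytometry at 488 nm excitation, with vinblastine (no S9) and cyclophosphamide (plus S9) as positive controls.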

CC(C)(OO)c1ccccc1 [Cumene hydroperoxide]
Details | hypodiploid nuclei frequency, CHO-K1 [2] [%] | micronucleus frequency, CHO-K1 [1] [%] | relative survival, CHO-K1 [3]
concentration: 4.5 (µM), S9 metabolic activation: with S9, exposure time: 3-4 hours | 0.12 | 1.34 | 113
concentration: 4.5 (µM), S9 metabolic activation: without S9, exposure time: 24 hours | 0.36 | 1.54 | 118
concentration: 5.63 (µM), S9 metabolic activation: with S9, exposure time: 3-4 hours | 0.46 | 1.7 | 91.5
concentration: 5.63 (µM), S9 metabolic activation: without S9, exposure time: 24 hours | 0.54 | 1.4 | 100
concentration: 7.04 (µM), S9 metabolic activation: with S9, exposure time: 3-4 hours | 0.28 | 1.38 | 89.3
concentration: 7.04 (µM), S9 metabolic activation: without S9, exposure time: 24 hours | 0.52 | 1.66 | 95
concentration: 8.8 (µM), S9 metabolic activation: with S9, exposure time: 3-4 hours | 0.28 | 1.42 | 95.3
concentration: 8.8 (µM), S9 metabolic activation: without S9, exposure time: 24 hours | 0.64 | 1.7 | 111
concentration: 11 (µM), S9 metabolic activation: with S9, exposure time: 3-4 hours | 0.26 | 1.1 | 107
concentration: 11 (µM), S9 metabolic activation: without S9, exposure time: 24 hours | 0.54 | 1.3 | 97.1
concentration: 13.7 (µM), S9 metabolic activation: with S9, exposure time: 3-4 hours | 0.2 | 1.5 | 95
concentration: 13.7 (µM), S9 metabolic activation: without S9, exposure time: 24 hours | 0.48 | 1.32 | 103
concentration: 17.2 (µM), S9 metabolic activation: with S9, exposure time: 3-4 hours | 0.32 | 2.06 | 115
concentration: 17.2 (µM), S9 metabolic activation: without S9, exposure time: 24 hours | 0.68 | 1.52 | 120
concentration: 21.5 (µM), S9 metabolic activation: with S9, exposure time: 3-4 hours | 0.4 | 1.14 | 126
concentration: 21.5 (µM), S9 metabolic activation: without S9, exposure time: 24 hours | 0.6 | 1.86 | 120
concentration: 26.8 (µM), S9 metabolic activation: with S9, exposure time: 3-4 hours | 0.22 | 1.38 | 87.1
concentration: 26.8 (µM), S9 metabolic activation: without S9, exposure time: 24 hours | 0.88 | 1.5 | 109
concentration: 33.6 (µM), S9 metabolic activation: with S9, exposure time: 3-4 hours | 0.36 | 1.58 | 84.4
concentration: 33.6 (µM), S9 metabolic activation: without S9, exposure time: 24 hours | 0.7 | 2.12 | 110
concentration: 41.9 (µM), S9 metabolic activation: with S9, exposure time: 3-4 hours | 0.34 | 1.54 | 76.4
concentration: 41.9 (µM), S9 metabolic activation: without S9, exposure time: 24 hours | 0.72 | 1.68 | 120
concentration: 52.4 (µM), S9 metabolic activation: with S9, exposure time: 3-4 hours | 0.22 | 1.74 | 83.3
concentration: 52.4 (µM), S9 metabolic activation: without S9, exposure time: 24 hours | 0.9 | 1.9 | 96
concentration: 65.5 (µM), S9 metabolic activation: with S9, exposure time: 3-4 hours | 0.34 | 2.06 | 84.8
concentration: 65.5 (µM), S9 metabolic activation: without S9, exposure time: 24 hours | 0.72 | 2.06 | 121
concentration: 81.9 (µM), S9 metabolic activation: with S9, exposure time: 3-4 hours | 0.2 | 2.12 | 94.5
concentration: 81.9 (µM), S9 metabolic activation: without S9, exposure time: 24 hours | 0.7 | 2.38 | 110
concentration: 102 (µM), S9 metabolic activation: with S9, exposure time: 3-4 hours | 0.24 | 1.66 | 107
concentration: 102 (µM), S9 metabolic activation: without S9, exposure time: 24 hours | 1.14 | 2.02 | 106
concentration: 128 (µM), S9 metabolic activation: with S9, exposure time: 3-4 hours | 0.44 | 1.54 | 88.3
concentration: 128 (µM), S9 metabolic activation: without S9, exposure time: 24 hours | 1.24 | 2.92 | 88.1
concentration: 160 (µM), S9 metabolic activation: with S9, exposure time: 3-4 hours | 0.44 | 2.54 | 94.7
concentration: 160 (µM), S9 metabolic activation: without S9, exposure time: 24 hours | 1.54 | 3.32 | 47.6
concentration: 200 (µM), S9 metabolic activation: with S9, exposure time: 3-4 hours | 0.2 | 1.96 | 101
concentration: 200 (µM), S9 metabolic activation: without S9, exposure time: 24 hours | – | – | 22.2
